Laboratory results from article PMC4336329 (PLoS ONE, 2015).
Out of some 310,000 compounds screened, about 14,000 (4.5%) showed an effect of 50% or more. The effect is printed as a negative number. The list shows a part of the results.

Each compound was assayed against human ether-à-go-go-related gene (hERG) potassium channel (human, UniProt Q12809) (assay: primary screen, population patch clamp on CHO cells stably expressing hERG).
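Note: peak tail current of the secondary pulse compared with the same well before compound.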

Chain of human ether-à-go-go-related gene (hERG) potassium channel (Q12809 whole entry, looked up): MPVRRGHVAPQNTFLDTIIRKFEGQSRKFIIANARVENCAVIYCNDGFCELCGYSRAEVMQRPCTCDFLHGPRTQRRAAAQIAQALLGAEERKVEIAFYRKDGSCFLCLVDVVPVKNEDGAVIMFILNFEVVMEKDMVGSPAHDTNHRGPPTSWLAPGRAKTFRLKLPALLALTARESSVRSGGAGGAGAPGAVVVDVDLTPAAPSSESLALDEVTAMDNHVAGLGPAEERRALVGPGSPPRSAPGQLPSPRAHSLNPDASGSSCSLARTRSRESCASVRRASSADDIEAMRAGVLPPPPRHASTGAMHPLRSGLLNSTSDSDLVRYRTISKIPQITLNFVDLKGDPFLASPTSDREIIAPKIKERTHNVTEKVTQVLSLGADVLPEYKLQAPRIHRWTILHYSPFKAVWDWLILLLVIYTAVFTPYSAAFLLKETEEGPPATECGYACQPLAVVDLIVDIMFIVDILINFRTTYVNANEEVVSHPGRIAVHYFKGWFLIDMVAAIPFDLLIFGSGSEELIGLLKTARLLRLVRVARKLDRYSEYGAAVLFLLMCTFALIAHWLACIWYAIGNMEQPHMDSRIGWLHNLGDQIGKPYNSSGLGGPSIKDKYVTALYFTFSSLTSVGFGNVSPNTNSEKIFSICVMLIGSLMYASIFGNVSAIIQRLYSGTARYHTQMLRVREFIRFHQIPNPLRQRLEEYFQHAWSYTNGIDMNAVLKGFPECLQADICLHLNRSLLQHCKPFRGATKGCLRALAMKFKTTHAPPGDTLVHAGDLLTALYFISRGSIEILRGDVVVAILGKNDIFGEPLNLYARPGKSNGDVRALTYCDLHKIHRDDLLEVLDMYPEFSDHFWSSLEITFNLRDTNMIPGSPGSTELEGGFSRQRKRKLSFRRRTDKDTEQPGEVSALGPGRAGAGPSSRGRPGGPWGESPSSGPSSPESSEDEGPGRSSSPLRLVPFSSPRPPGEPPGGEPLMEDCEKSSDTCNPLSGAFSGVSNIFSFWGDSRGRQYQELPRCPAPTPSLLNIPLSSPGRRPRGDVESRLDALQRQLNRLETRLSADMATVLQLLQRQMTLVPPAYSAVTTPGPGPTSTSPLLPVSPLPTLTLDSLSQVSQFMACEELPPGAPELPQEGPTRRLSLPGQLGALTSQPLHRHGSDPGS

Structure (SMILES)	hERG current change (%, negative = inhibition) at 10uM [%]
O=C(c1ccc([N+](=O)[O-])cc1)N1CCOC12CCN(c1ncc(C(F)(F)F)cc1Cl)CC2	9.88
Nc1ccn([C@@H]2O[C@H](CO)[C@@H](O)[C@@H]2O)c(=O)n1	-2.36
Cc1ccc(-c2nn3nnnc3c3ccccc23)cc1C	-1.31
Nc1cnn(Cc2ccccc2F)c1	16.3
Oc1[nH]c(N=C2N=c3ccccc3=N2)c2ccccc12	5.16
COc1ccc(S(=O)(=O)N2CCN(c3ncnc4c(-c5ccccc5)nsc34)CC2)cc1	-9.1
CCOC(=O)C1=C(C)NC(C)=C(C(=O)OCC)C1C(=O)OC1CCOC1=O (stereo not shown)	12.6
Cc1ccc(C)c2c1N(Cc1ccccc1)C(=O)C21OCCO1	-21.8
COc1ccc(-n2c(Cn3c(=O)sc4ccccc43)nnc2SCC(=O)N2CCCCC2)cc1	-37
Cc1ccc(C)c(S(=O)(=O)N2C(=S)NC(=O)C2CC(C)C)c1 (stereo not shown)	14.5
O=C(O)CN1C(=O)CNC1=O	16.8
Cc1cc2[nH]c(=O)cc(-c3ccccc3)n2n1	6.41
Cc1cccc(N(CC(=O)N=Nc2c(O)[nH]c3ccccc23)S(C)(=O)=O)c1C	-8.1
Cc1ccc(S(=O)(=O)N2CCN(C(=O)COC(=O)c3ccccc3Cl)CC2)c(C)c1	-12.5
Cc1nn(Cc2ccccc2Cl)c(C)c1NC(=O)Cn1nc([N+](=O)[O-])c(Cl)c1C	7.21
Cc1cn(C2OC(COC(=O)c3ccccc3)C(O)C2O)c(=O)[nH]c1=O (stereo not shown)	16.4
COCCCN1C(=O)c2ccc(C(=O)Nc3ccccc3Cl)cc2C1=O	2.92
COC(=O)C1C(O)=CC(=O)CC1C (stereo not shown)	5.81
O=C1c2ccccc2S(=O)(=O)c2cc(C(=O)N3CCN(c4ccc(Cl)cn4)CC3)ccc21	-33.1
Cc1ccc(S(=O)(=O)N/N=C\c2ccc3c(c2)OCO3)cc1	19.5
Nc1cc(C(F)(F)F)cc2c1SCC(=O)N2	22.5
CCOC(=O)c1cc(CC)sc1NC(=O)c1cccc(N2C(=O)CCC2=O)c1	-25.6

Structure (SMILES)	hERG current change (%, negative = inhibition) at 10uM [%]
C=CCn1c(CSCc2ccc(Cl)cc2Cl)nnc1SCC(=O)Nc1ccc(C(=O)O)cc1	6.02
Nc1ccccc1Oc1ccc2ccccc2c1	-7.4
COc1ccc(S(=O)(=O)c2cnc3ccc(OC)cc3c2N2CCC3(CC2)OCCO3)cc1	-28.5
Cc1cc(C)n2nc(C(=O)OCC(=O)NNC(=O)c3ccccc3)nc2n1	1.34
CC1CCN(S(=O)(=O)N2CCC(C(=O)NCc3cccnc3)CC2)CC1	-26.2
CC1CCCC(NC(=O)COC(=O)Cc2ccccc2)C1C (stereo not shown)	-5.31
CCN1CCN(c2nc(Nc3cccc(C)c3)nc(N)c2[N+](=O)[O-])CC1	-70.2
COc1cccc(C(=O)NC2(C(F)(F)F)N=C3SCCN3C2=O)c1 (stereo not shown)	15.3
Cc1ccc(-c2nnn(CC(=O)NCC3COCCO3)n2)o1 (stereo not shown)	13
COc1ccc(/C=N/NC(=O)c2cc[n+]([O-])cc2)cc1O	5.39
O=C(OCC(=O)N(C1CCCCC1)C1CCCCC1)c1ccc(O)cc1	18.6
COc1cccc(OC)c1C(=O)NC(=O)Nc1c(F)c(F)c(F)c(F)c1F	10.1
O=C(O)CN1C(=O)Nc2ccc(Br)cc2C1c1ccccc1 (stereo not shown)	-3.51
COc1ccccc1NC(=O)c1nn(-c2ccc(Cl)cc2)ccc1=O	0.277
COC12NC(=O)N(C)C1(OC)C(=O)N(C)C(=O)N2C (stereo not shown)	8.11
Cc1cccc(C(=O)Nc2sc3c(c2C#N)CCCCC3)c1	16.5
Cc1ccc(NC(=O)CC(NC(=O)c2ccccc2Cl)c2ccccc2)nc1 (stereo not shown)	5.3
CC(Oc1ccc(F)cc1)C(=O)Nc1ccc2ccccc2c1 (stereo not shown)	13.1
NC(=O)Cc1nc2scc(-c3ccccc3)c2c(=O)[nH]1	37.9
O=C(Nc1ccc2c(c1)OCO2)c1ccc(N2C(=O)c3ccccc3C2=O)cc1	-5.61
O=C(Cn1nc(-c2ccc3c(c2)OCCO3)ccc1=O)Nc1ccc(N2CCOCC2)cc1	5.41
CCN(CC)C(=O)CSc1nnc(-n2nc(C)cc2C)c2ccccc12	-6.11

Structure (SMILES)	hERG current change (%, negative = inhibition) at 10uM [%]
O=C(c1cc2nc(-c3ccccc3)cc(C(F)(F)F)n2n1)N1CCOCC1	-29.3
O=C(Cc1ccccc1)NNC(=S)Nc1ccc(Cl)cc1	12
C(=C\c1ccco1)/C=N/n1cnnc1	5.46
Nc1ccc(C(=O)Nc2ccco2)cc1	8.93
CCCn1c(=O)c2[nH]cnc2n(-c2ccc(Cl)cc2)c1=O	6.53
CCOC(=O)N1CCN(C(c2cccnc2)c2ccc3cccnc3c2O)CC1 (stereo not shown)	-0.699
Cn1c(SCC#N)nnc1-c1ccc2c(c1)OCO2	16.9
CCOC(=O)C1(CCc2ccccc2)CCN(C(=O)CCn2cncn2)CC1	-63.2
Oc1ccc(-c2onc(C(F)(F)F)c2-c2cscn2)c(O)c1	2.08
Cc1c(C(=O)O)nn(-c2ccccc2)c(=O)c1C#N	4.41
CCOc1ccc(CCNC(=O)c2oc3c(c2C)-c2[nH]ncc2CC3)cc1OCC	0.241
C=CCn1c(O)c(C(C)=NCc2ccc3c(c2)OCO3)c(=O)[nH]c1=O	-8.17
CCN1C(=O)C2(Nc3ccccc3-c3nc4ccccc4n32)c2cc(OC)ccc21 (stereo not shown)	-4.35
Cc1nnc(SCC2=C(C(=O)O)N3C(=O)[C@@H](NC(=O)Cn4cnnn4)[C@H]3SC2)s1	2.9
COc1ccc(CCNC(=O)c2cnn3c(C(F)F)cc(C)nc23)cc1OC	-4.22
Nc1cc(S(=O)(=O)N2CCOCC2)ccc1Oc1ccc(F)cc1	-3.51
O=C(O)CCC(=O)Nc1cc(C(F)(F)F)cc(C(F)(F)F)c1	15.1
CC(NC(=O)C(=O)c1cn(CC(=O)N2CCOCC2)c2ccccc12)c1ccccc1 (stereo not shown)	4.56
O=C(/C=C/c1cccc([N+](=O)[O-])c1)OC1CCCCC1=O (stereo not shown)	7.17
Cl.N[C@@H](Cc1c[nH]c2ccccc12)c1nnc(SCc2ccccc2)o1	-3.63
CCc1ccccc1NC(=O)COc1cccc2ccc(C)nc12	-35.3
FC(F)(F)c1cccc(-c2ccc(/C=N/Nc3nncc(-c4ccccc4)n3)o2)c1	-12.8

Structure (SMILES)	hERG current change (%, negative = inhibition) at 10uM [%]
CCCc1nc(SCC(=O)N2CCC(C)CC2)c2c(=O)n(C)c(=O)n(C)c2n1	-38.2
Cc1cccc(OCC(=O)Nc2ccc(S(=O)(=O)Nc3onc(C)c3C)cc2)c1C	13.3
Nc1c2c(nc3sc4c(c13)CCCC4)CCCC2	-70.4
O=C(CCl)NN1C(=O)NC2(CCCCC2)C1=O	9.35
Cl.O=C(CN1CCN(c2ncccn2)CC1)Nc1ccccc1-n1cccc1	-14.2
O=C(CCC(=O)OCc1ccc(Br)cc1)Nc1ccccc1	8.45
N/C(Cc1nc(-c2ccc(F)cc2)cs1)=N\O	13.7
O=S(=O)(NOCc1ccc(Cl)cc1)c1ccc(Cl)cc1	17.5
Cc1c(NC(=O)c2ccc(Cl)nc2)cccc1-c1nc2cccnc2s1	-48.1
COCCNC(=O)c1c(NC(=O)c2nc(SC)ncc2Cl)sc2c1CCCC2	20.4
CC1CCCN(C2(O)C(=O)Nc3ccc([N+](=O)[O-])cc32)C1 (stereo not shown)	0.385
O=C(COC(=O)C1COc2ccccc2O1)Nc1cccc(F)c1 (stereo not shown)	-17.9
COc1ccc(NC(=O)c2cc(-c3cc(OC)c(OC)c(OC)c3)nc3ccccc23)c(OC)c1	20.2
COc1ccccc1CNC(=O)C1CCC(CNS(=O)(=O)c2ccccc2)CC1 (stereo not shown)	9.7
CCCNC(=O)c1ccc(N2CCC3(CC2)CC(c2ccccc2)=NO3)c(NC(=O)c2cccc(C)c2)c1	-18.6
Cc1cccc(NC(=O)COC(=O)CSc2ccccc2)c1C	1.87
CCOC(=O)c1c(NC(=O)c2ccc(S(=O)(=O)N3CCOCC3)cc2)sc2c1CCN(C)C2	-27.4
CCOc1ccc(-n2cc(-c3ccccc3)c3c(N4CCOCC4)ncnc32)cc1	9.17
CC(=O)Nc1ccc(C(=O)OCC(=O)NCc2ccc(Cl)cc2)cc1	38.3
COc1ccc(C(=O)NCC(=O)OCC(=O)NC2CCCC2)cc1	16.1
O=C(O)CCC(=O)Nc1ccc(N2CCCCC2)c(C(=O)O)c1	11.5
COc1ccc(-c2cc(C(F)(F)F)nc(NCc3cccs3)n2)cc1	-13.6
